This note sets out measurements from PubChem BioAssay (NCI).

Several values for one entry are separate records, joined by “and”; a condition that tells them apart may be missing. Identical values can stand only once.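 Each compound was tested at five concentrations against cells in 96-well plates for 48 hours. Here, GI50 denotes the concentration required for 50% inhibition of growth. TGI marks complete inhibition of growth.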 Peptide text beside a SMILES is read from it. * marks the point of attachment. Trt = c1ccc(C(c2ccccc2)(c2ccccc2)*)cc1; Cbz = O=C(OCc1ccccc1)* A value given as a limit tells only on which side of the number the result lay.

The subject of the test is NCI-H322M lung. Briefly: NCI anticancer screen, dose series, 48 h.

On to `C=C1C(=O)O[C@H]2[C@H]1CC/C(COC(=O)c1cc(OC)c(OC)c(OC)c1)=C\CC[C@@]1(C)O[C@@H]21`, for which the GI50 was 2.41 µM and the TGI was found to be 8.66 µM.

Consider `O=C1NC(=S)S/C1=C\c1cn(-c2ccccc2)nc1-c1ccccc1`, for which the GI50 is 7.63 µM and the TGI amounted to 31.3 µM.

As for `COc1ccc(C2=Nc3c(nc(OC)[nH]c3=O)NC(c3ccccc3)C2)cc1` (stereo unspecified), the TGI was over 100 µM.

For the compound `COc1ccc(C(O)c2cc3c(N)c(C(=O)Nc4ccc(Cl)cc4)sc3nc2C)cc1` (stereo unspecified), the GI50 is 4.18 µM and the TGI came out at 35.6 µM.

`CC(=O)C1CCN(c2ccccc2)C1` (stereo unspecified) gave a TGI of over 100 µM.

Consider `CCOC(=O)c1c(-c2ccccc2)[n+](=O)c2cc(Cl)c(Cl)cc2n1[O-]`, for which the GI50 is 15.4 µM and the TGI amounted to 30.6 µM.

In the case of `COc1cc[c]([Sn]([c]2ccc(OC)cc2)([c]2ccc(OC)cc2)[c]2ccc(OC)cc2)cc1`, the GI50 is 66.2 µM and the TGI was over 100 µM.

`NS(=O)(=O)c1ccc(NC(=O)N/N=C/c2ccccc2O)cc1` returned a TGI of over 100 µM.

For `Cc1ccc(NC(=O)CCCC(=O)CC(=O)c2ccc(Br)cc2)cc1`, the TGI was over 100 µM.

On to `CCS(=O)C(=O)N(O)c1ccc(Cl)cc1` (stereo unspecified), for which the TGI is over 100 µM.

`Cn1c(=O)c2[nH]c(N=O)nc2n(C)c1=O`: the TGI was over 100 µM.

In the case of `CC(C)(C)c1cc(C(=O)Nc2ccccc2C(=O)NCCN)cc(C(C)(C)C)c1`, the GI50 is 1.93 µM and the TGI was determined as 3.7 µM.

Turning to `CCN(CC)c1ccc2nc3ccc(N=Nc4ccc(N(C)C)cc4)cc3[n+](-c3ccccc3)c2c1`, the GI50 is 0.487 µM and the TGI came to 5.3 µM.

Consider `COCC(C)(C)N=CN1Cc2cc3ccccc3nc2C1`, for which the TGI was over 100 µM.

In the case of `CCN1CCN(c2nc(C)cc(N(CCCNc3ccnc4cc(Cl)ccc34)Cc3ccc4c(c3)OCO4)n2)CC1`, the GI50 is 2.14 µM and the TGI was determined as 6.13 µM.

On to `CC1(C)OP(=O)(c2ccccc2)C=C1Sc1ccc([N+](=O)[O-])cc1[N+](=O)[O-]` (stereo unspecified), for which the TGI is over 100 µM.

The compound `C/C(=N\O)c1ccc2ccc3ccccc3c2c1` came in with a TGI of over 100 µM.

Compound `CC(C)(O)/C1=C/C=C/CCCCCCCCCC1` displayed a TGI of over 100 µM.

Compound `O=Cc1c[nH]c2c(=O)[nH]cnc12` gave a TGI of over 100 µM.

As to `CCNC(=O)C(C)C1CCC2(C)C=CC(=O)C(C)=C2C1O` (stereo unspecified), the TGI was over 100 µM.

As for `N#CCCn1[nH]c(=O)c(Cl)c(Cl)c1=O`, the TGI turned out to be 30.2 µM.

In the case of `Clc1nccc2c(-c3csc(-c4c[nH]c5ccc(Br)cc45)n3)c[nH]c12`, the GI50 was 3.54 µM and the TGI was 22.5 µM.

`CC1=NN(c2nc(N)nc(NS(=O)(=O)c3cc(C)c(Cl)cc3S)n2)C(C)(C)C1` yielded a TGI of over 10 µM.

`Cc1ccc(C(=O)CC2(O)C(=O)Nc3c(C)cc(Cl)cc32)cc1` (stereo unspecified): the TGI was over 100 µM.

`O=C1Oc2ccccc2C1C/C(=N\Nc1ccccc1)c1ccccc1O` (stereo unspecified) yielded a TGI of over 100 µM.

In turn, `CN(C)c1ccc(/C=C/C(=O)c2ccc(O)cc2)cc1` came in with a TGI of over 100 µM.

On to `O=C(O/N=C1\CCCC\C1=C/c1ccccc1)c1ccc([N+](=O)[O-])cc1`, for which the TGI was over 100 µM.

`CN=c1ss/c(=N\C(=S)N(C)C)n1C`: the TGI was over 100 µM.

Regarding `CCOC(=O)Cc1cc(OC)c(OC)cc1/C(Cl)=C(\CO)c1ccc(OC)c(OC)c1`, the TGI is over 100 µM.

In turn, `CC(C)OC(=O)c1ccc(NCc2cc(O)ccc2O)cc1` yielded a TGI of 98.8 µM.

With `CO/C(N)=C(\C#N)N=Cc1ccc2ccccc2c1`, the TGI is over 100 µM.

`CN(C)CCNc1ccc2ncn3c4ccccc4c(=O)c1c23` showed a TGI of 8.11 µM.

`O=C(NN1C(=O)C(Cl)C1c1ccccc1O)c1ccccc1O` (stereo unspecified) displayed a TGI of over 100 µM.

On to `COc1cc2oc(-c3cccc(C(=O)Nc4ccc(Cl)cc4)c3)cc(=O)c2c(OC)c1OC`, for which the GI50 was 2.56 µM and the TGI was over 100 µM.

The compound `Clc1ccc(Nc2nnc(CNc3ccc(-c4nnc(Nc5ccc(Cl)cc5)s4)cc3)s2)cc1` yielded a TGI of 85.9 µM.

On to `CN(C)CCNC(=O)c1cccc2c1nc(-c1ccc(F)cc1)c1ccccc12`, for which the TGI turned out to be 15.6 µM.

Compound `Cc1cccc(C2ON=C(c3ccccc3)N2C23CC4CC(CC(C4)C2)C3)c1` (stereo unspecified) showed a TGI of over 10 µM.

`Cc1nc(N)nc(N)c1CCCCc1ccc(N)cc1` gave a TGI of 23.2 µM.

Compound `Cc1ccc(/C=C2\Sc3scc(-c4ccccc4)[n+]3C2=O)cc1` returned a TGI of over 77.2 µM.

`CN1CCN(CC(=O)N(C)c2ccc(N=C(c3ccccc3)c3c(O)[nH]c4ccc(C#N)cc34)cc2)CC1`: the GI50 was 2.51 µM and the TGI is 14.6 µM.

For the compound `COC(=O)C(CO)NC(=O)C(CSC(c1ccccc1)(c1ccccc1)c1ccccc1)NC(=O)OCc1ccccc1` (stereo unspecified) (Cbz-Cys(Trt)-Ser-OMe; configuration not given here), the TGI was 47.8 µM.

In turn, `COC1C2C[C@@H](O)CCC2C(C(=O)OCCl)C[C@H]1O` (stereo partly specified) returned a TGI of over 100 µM.

Turning to `C[C@@H](CC(O)C(O)C(C)(C)O)C1CCC23CC12CCC1[C@@]2(C)CCC(O)C(C)(C)C2CC(OC2OC(CO)C(O)C(O)C2O)[C@]13C` (stereo partly specified), the TGI is over 10 µM.

`CC1=C(c2nc3ccccc3s2)C(=O)OC1(C)C` came in with a TGI of over 100 µM.

The compound `O=C1CCN2c3ccccc3[C@H]3Cc4cccc(c4[C@@H]2C3)CCO1` showed a TGI of over 100 µM.

With `COC(=O)NC1C(C)OC(OC2C/C=C(/C)C3C=CC4C(OC5CC(OC6CCC(OC7CC(O)C(OC8CCC(O)C(C)O8)C(C)O7)C(C)O6)C(OC(C)=O)C(C)O5)C(C)CC(C)C4C3(C)/C(O)=C3/C(=O)OC4(CC(C=O)=CC(O)C4/C=C\2C)C3=O)CC1(C)[N+](=O)[O-]` (stereo unspecified), the TGI turned out to be 4.6 µM.

For the compound `CN=C(N)c1ccc(N=C(N)c2ccc(-c3ccc(C(N)=Nc4ccc(C(N)=NC)cc4)cc3)cc2)cc1`, the GI50 is over 100 µM and the TGI was over 100 µM.

`CCOCC1(COCC)CCC(c2[nH]ncc2CN(C)CCNC)CC1`: the GI50 was over 100 µM and the TGI is over 100 µM.

Take `COc1cccc(/C=C/C(=O)c2ccc3cc(OC)ccc3c2)c1`: the GI50 is 14.4 µM and the TGI stood at 47.3 µM.

In turn, `FC(F)(F)c1ccc2c(c1)N(CCCNCCN1CCOCC1)c1ccccc1S2` returned a TGI of 23.2 µM.

Consider `COc1ccc2nc3cc(Cl)ccc3c(NCCCNCCO)c2c1`, for which the GI50 is 0.404 µM and the TGI was 2.33 µM.

In the case of `O=C(Nc1ccc(Oc2ccc3nc(NC(=O)c4ccco4)[nH]c3c2)cc1)Nc1cc(C(F)(F)F)ccc1F`, the GI50 was 3.46 µM and the TGI is over 20.4 µM.

In turn, `COc1cccc2c1-c1nc(N)c3c(OC)cccc3c1C2=O` gave a TGI of over 100 µM.

In turn, `CC(=O)Nc1[nH]n(C)c(=O)c1-c1nnc(C)s1` yielded a TGI of over 100 µM.

For the compound `Nc1nc(NNc2cccc(F)c2)cc(=O)[nH]1`, the TGI is over 100 µM.

Consider `CCOC(=O)c1c[nH]c(C(=O)OCC)c1-c1cccn1-c1ccccc1`, for which the TGI came out at 66.2 µM.

As for `Nc1nncc2c1c(Br)cn2C1OC(CO)C(O)C1O` (stereo unspecified), the TGI is over 100 µM.

Take `Nc1nc(Nc2ccc(Cl)c(Cl)c2)nc2nc[nH]c12`: the TGI came out at 36.6 µM.

On to `NC(=O)c1ccc2c(c1)-c1nc-2nc2[n-]c(nc3nc(nc4[n-]c(n1)c1ccc(C(N)=O)cc41)-c1ccc(C(N)=O)cc1-3)c1ccc(C(N)=O)cc21.[Co+2]`, for which the GI50 is over 50 µM and the TGI was over 50 µM.

`O=[N+]([O-])c1ccc(SN=S=NSc2cccc(SN=S=NSc3ccc([N+](=O)[O-])cc3)c2)cc1`: the TGI is over 100 µM.

Regarding `O=C1OC(c2ccccc2)=NC1c1ccccc1` (stereo unspecified), the TGI was over 100 µM.

For the compound `N#C/C(=C\c1ccncc1)c1csc2ccccc12`, the TGI was over 86.7 µM.

`COc1ccc(-c2cc(=O)c3c(O)c(OC)c(OC)c(OC)c3o2)cc1OC` gave a TGI of over 100 µM.

Consider `COc1ccc2[nH]c3c(c2c1)[C@H](c1ccccc1)C[C@@H]1C(=O)N(c2ccccc2)C(=O)[C@H]31`, for which the TGI was over 100 µM.

In the case of `O=C1NC(=NCCc2ccc(F)cc2)S/C1=C\c1ccc2ncccc2c1`, the GI50 is over 25 µM and the TGI is over 25 µM.

`Cc1ccc(NC(=O)CCc2nc(=S)[nH][nH]2)cc1` registered a TGI of over 100 µM.

In the case of `CSC1=NC(=Nc2c(C)cccc2C)C2(CCC(C(C)(C)C)CC2)N1c1ccc(Cl)cc1` (stereo unspecified), the GI50 is over 100 µM and the TGI was over 100 µM.

Consider `S=c1sc2c(s1)SC(c1ccccc1)CS2` (stereo unspecified), for which the TGI was over 100 µM.

For `COc1cc2ccc3c4ccccc4cnc3c2cc1OC`, the TGI is over 100 µM.

The compound `C=CCCC1(O)C(O)C(CO)O[C@H](O[C@@]2(CO)OC(CO)C(O)C2O)C1O` (stereo partly specified) yielded a TGI of over 100 µM.

Consider `COc1ccccc1/C=C(/C)[N+](=O)[O-]`, for which the TGI was 32.8 µM and 22.1 µM.

`CC(C)=CCc1cc2c(cc1O)C1=C(C(=O)C3=C(C1=O)S(=O)(=O)CCN3)C(C=C(C)C)O2` (stereo unspecified): the GI50 was 0.47 µM and the TGI amounted to 1.64 µM.

Compound `CSc1ncnc2c1cnn2Cc1cn(COCCO)nn1` showed a TGI of 96.3 µM.

With `O=C1[C@@H]2C(c3ccc(Br)cc3)=NO[C@@H]2C(=O)N1c1ccc(Cc2ccc(N3C(=O)[C@H]4C(c5ccc(Br)cc5)=NO[C@H]4C3=O)cc2)cc1`, the TGI is over 3.48 µM.

Turning to `Cc1ccc(S(=O)c2cccs2)cc1` (stereo unspecified), the TGI is over 100 µM.

`FC(F)(F)c1ccc(C2ON=C(c3ccccc3)N2C23CC4CC(CC(C4)C2)C3)cc1` (stereo unspecified) registered a TGI of over 10 µM.

In turn, `CC(C)N(C(=O)C12C3C4C1C1C2C3C41C#N)C(C)C` (stereo unspecified) displayed a TGI of over 100 µM.

On to `[N-]=[N+]=Nc1ccccc1-c1ccccc1[N+](=O)[O-]`, for which the TGI was over 100 µM.

In the case of `COc1cc(C2c3cc4c(cc3[C@@H](NCCN(C)C)C3COC(=O)[C@H]23)OCO4)cc(OC)c1O` (stereo partly specified), the TGI was 7.25 µM and 18.1 µM.

In the case of `CC(C)(C)OC(=O)NC1CCCC1C(=O)C1=CCCC1` (stereo unspecified), the TGI was over 100 µM.

As to `Clc1ccc(Cl)c(N=Nc2cc3c4c(c2)CCN4CCC3)c1`, the TGI was over 10 µM.

Compound `CCOC(=O)C(C)(NC(=O)c1ccc(NCc2ccc3nc(NC(=O)c4ccccc4)nc(NC(=O)c4ccccc4)c3c2)cc1)C(=O)OCC` showed a TGI of 68 µM.

`Brc1ccc(C2C3CSc4ccccc4C3=NN2c2ccccc2)cc1` (stereo unspecified) registered a TGI of over 100 µM.

Turning to `OCC#CCNCl`, the TGI is over 100 µM.

`Cc1c(O)c(=O)ccn1CCN`: the TGI was over 100 µM.

Compound `C/C(=C/C(=O)Nc1ccccc1)Nc1onc(C)c1C` yielded a TGI of over 100 µM.
